Measurements: PubChem BioAssay AID445 (National Center for Advancing Translational Sciences (NCATS), 2006)
Screen size: about 110,000 compounds; about 40 (0.04%) were called active. The shares of active, inactive and inconclusive entries below differ from those in the screen. Calls come from the whole dose curve; as a rule, active = well fitted curve in the direction sought with a large enough effect in the signal ratio (not every such curve was filed as active); inconclusive = small, poorly fitted or top-dose-only effect, or a change in a side signal; inactive = flat fitted curve, though single readings scatter; the % refers to the signal ratio. Where the call is inconclusive, the potency comes from a doubtful curve fit.

Assay: IkB Signaling;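 for IkBa stabilization activation: 0% = basal untreated cells and 100% = reference inhibitor full response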
Settings: ABC-DLBCL IkBa-CBG/CBR dual luciferase ratio (green luciferase fused to IkBa over red control in OCI-Ly3 lymphoma cells), 4 h; IkBa stabilization activation: at 57.1 µM (top of the series), scaled: untreated 0%, proteasome inhibitor 100% unless noted
How it was run: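 In this assay, an IκBα–CBG68 fusion accumulates when IKK-driven degradation is blocked; native CBR normalizes for cell number. OCI-Ly3 cells were treated 4 h with compound and doxycycline, then green and red light read after Chroma-Glo addition.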
Potency is the fitted concentration of half-maximal effect.

Compound	IkBa stabilization activation	Potency
CCn1c(SCC(=O)c2cc(OC)ccc2OC)nnc1-c1ccncc1	inactive	–
CCN(c1ccccc1)S(=O)(=O)c1nnc(NC(=O)c2cccs2)s1	inactive	–
Cc1ccc(Cl)cc1-n1ncc2c(NC3CCCCCC3)ncnc21	inconclusive: -1.97% [signal inhibitor]	–
Cc1ccc(-n2nc(C(=O)N3CCC(C)CC3)c(=O)n(C)c2=O)cc1	inconclusive: -3.25% [signal inhibitor]	–
Fc1ccc(-c2nnc(-c3ccc(Cl)cc3Cl)o2)cc1	–	inconclusive: 5.01 µM [signal inhibitor, full curve]
Cc1ccc(Nc2c(-c3c[nH]c4ccccc34)nc3cc(C)ccn23)cc1	–	inconclusive: 0.2 µM [signal inhibitor, partial curve]
COc1cc(OC)c(OC)cc1/C=C/c1nc2cc3ccccc3cc2c(=O)n1-c1ccc(Cl)cc1	–	inconclusive: 12.6 µM [signal inhibitor, partial curve]
CCOC(=O)CC(NS(=O)(=O)c1ccc2[nH]c3c(c2c1)CCCC3)c1ccccc1Cl (stereo unspecified)	inactive	–
CC(C)OCCCNC(=O)c1ccc2c(c1)N(Cc1c(F)cccc1Cl)C(=O)c1ccccc1S2	inconclusive: 0.186% [signal inhibitor]	–
COc1ccc(-c2nn3c(=O)cc(CN4CCN(C(=O)c5ccc(C(C)(C)C)cc5)CC4)nc3s2)cc1	inconclusive: 1.51% [signal inhibitor]	–
COc1ccc(C(=O)NCC(c2cccnc2)N2CCc3ccccc32)cc1 (stereo unspecified)	inconclusive: -0.617% [signal inhibitor]	–
CCOC(=O)c1c(N)n(-c2ccc(C)c(Cl)c2)c2nc3ccccc3nc12	inactive	–
O=C(CCC1N=C2c3ccccc3N=C(SCc3ccc(F)cc3)N2C1=O)NCc1cccs1 (stereo unspecified)	inconclusive: -1.08% [signal inhibitor]	–
CCOC(=O)C1=C(CS(=O)(=O)c2cccc(C(F)(F)F)c2)NC(=O)NC1c1cccc(OC)c1 (stereo unspecified)	inconclusive: -0.962% [signal inhibitor]	–
CCC(C(=O)Nc1cc(Cl)ccc1OC)n1nc(-c2ccccc2)ccc1=O (stereo unspecified)	inconclusive: 0.543% [signal inhibitor]	–
CCCCN(C)CCCNC(=O)C1CCN(c2nc3ccc(CC)cc3s2)CC1	inconclusive: 4.37% [signal inhibitor]	–
COc1ccc(OC)c(NC(=O)c2noc3c2CCCC3)c1	inconclusive: -0.0958% [signal inhibitor]	–
CCOC(=O)Cc1ccc(NC(=O)N2CCOc3ccc(C)cc32)cc1	inactive	–
O=C(O)C1C2C=CC(O2)C1C(=O)Nc1ccc2c(c1)OCCO2 (stereo unspecified)	–	inconclusive: 12.6 µM [signal inhibitor, partial curve]
CC(=O)CCc1oc2ccc(NC(C)=O)cc2c1-c1ccc(C)o1	inactive	–
Cc1ccc(OC(C)C(=O)Nc2nonc2-c2ccc(Br)cc2)cc1C (stereo unspecified)	inconclusive: 17.5% [signal inhibitor]	–
COCCNc1ncnc2ccc(-c3c(C)noc3C)cc12	inconclusive: 15.5% [signal activator] [at 11.4 µM, scaled: untreated 0%, proteasome inhibitor 100%]	–
O=C(Nc1c(Cl)cccc1Cl)c1cc(-c2ccc3c(c2)OCO3)on1	inconclusive: 8.03% [signal inhibitor]	–
CCOC(=O)Cn1c(=O)oc2cc(S(=O)(=O)N3CCN(c4cccc(C)c4C)CC3)ccc21	inconclusive: 5.27% [signal inhibitor]	–

Compound	IkBa stabilization activation	Potency
O=C(NCc1ccco1)c1cc2c(s1)CCCCC2	–	inconclusive: 31.6 µM [rising, partial curve]
Cc1ccc(NC(=O)C2C(=O)N(CCO)C3(C)CC2c2ccccc2O3)cc1 (stereo unspecified)	inconclusive: 9.92% [signal inhibitor]	–
CCCCN1C(=O)CN(C2CCCCCC2)C(=O)C1c1ccc(OCCC)c(OC)c1 (stereo unspecified)	inactive	–
CCCOc1cccc(C(=O)Nc2cccc(NC(=O)c3ccc(C(C)(C)C)cc3)c2)c1	inconclusive: 12.5% [signal inhibitor]	–
CCCn1nnnc1SCC(=O)NCc1ccc2c(c1)OCO2	inactive	–
CN(C)c1ccc(C(CNC(=O)c2ccc(C(C)(C)C)cc2)N2CCOCC2)cc1 (stereo unspecified)	inactive	–
COc1ccc(CCNC(=O)C2(c3cccs3)CCOCC2)cc1OC	inactive	–
COc1nc(OCCNC(=O)Nc2ccccc2)nc(N(C)C)n1	inactive	–
COc1ccc(-c2nc3c4ccccc4n(CC(=O)Nc4cc(F)ccc4F)c(=O)n3n2)cc1	inconclusive: 4.71% [signal inhibitor]	–
CCCCC(=O)Nc1ccccc1C(=O)OCc1cc(=O)n2nc(C3CCCCC3)sc2n1	inconclusive: 2.96% [signal inhibitor]	–
O=C(CSc1nccn1-c1ccc(F)cc1)Nc1ccc(OC(F)(F)F)cc1	inactive	–
CCOC(=O)c1c(C)oc2ccc(NS(=O)(=O)c3ccc4c5c(cccc35)C(=O)N4)cc12	inconclusive: -1.1% [signal inhibitor]	–
CCc1cc2c(=O)n(Cc3ccco3)c(SCc3c(C)noc3C)nc2s1	–	inconclusive: 25.1 µM [signal inhibitor, partial curve]
CCOC(=O)c1c(-c2ccc(Br)cc2)csc1NC(=O)c1ccccc1F	inactive	–
CCN1CCC[C@@H](OC(=O)C(c2ccccc2)c2ccccc2)C1	inactive	–
Cc1ccc2c(C)c(C(=O)N(Cc3ccc(Cl)cc3)C3CCS(=O)(=O)C3)oc2c1 (stereo unspecified)	inconclusive: 5.64% [signal inhibitor]	–
O=C1CN(C(=O)c2ccccc2C(F)(F)F)C(c2ccccc2)c2cc(F)ccc2N1 (stereo unspecified)	inconclusive: 14.2% [signal inhibitor]	–
c1ccc2c(c1)ccc1cc3c(ccc4ccccc43)cc12	–	inconclusive: 0.0398 µM [signal inhibitor, full curve]
CCCNc1c(NC(=O)c2ccc(OCCC)cc2)c(=O)oc2ccccc12	inconclusive: -2.33% [signal inhibitor]	–
Cc1ccccc1Cn1c(=O)n(Cc2ccc(Cl)cc2)c(=O)c2cccnc21	inactive	–
CCCCC#Cc1nc(N)c2ncn([C@@H]3O[C@@H](C(=O)NCC)[C@H](O)[C@@H]3O)c2n1	inconclusive: 1.72% [signal activator]	–
COc1cc(Cl)c(C)cc1NC(=O)c1sc2nc3n(c(=O)c2c1C)CCCCC3	inconclusive: 0.931% [signal inhibitor]	–
CN(C)c1ccc(C(CNS(=O)(=O)c2ccccc2)N2CCc3ccccc32)cc1 (stereo unspecified)	inactive	–
COc1cc(C(=O)NCC(c2cccnc2)N2CCc3ccccc32)cc(OC)c1OC (stereo unspecified)	inconclusive: -0.164% [signal inhibitor]	–

Compound	IkBa stabilization activation	Potency
CC(Sc1ncc(C#N)c(N)n1)C(=O)Nc1ccccc1 (stereo unspecified)	inactive	–
COc1cc2c(cc1NC(=O)CSCC(=O)O)oc1ccccc12	–	inconclusive: 1.26 µM [signal inhibitor, full curve]
CCCCOC(=O)CSc1nnc(-c2cc(OC)c(OC)c(OC)c2)o1	inconclusive: 11.2%	–
O=C(Nc1ccc(-c2nnco2)cc1)c1ccccc1	–	inconclusive: 25.1 µM [signal inhibitor, partial curve]
COc1ccc(NC(=O)CSc2nc(-c3ccc(OC)cc3)[nH]c2-c2ccc(OC)cc2)cc1	inconclusive: 17.4% [signal inhibitor]	–
COc1ccc(-c2cc(OC(=O)c3ccc(Cl)cc3)c3c(C)oc(C)c3c(=O)c2)cc1	inactive	–
C=CCn1c(SCC(=O)NCCCC)nc2scc(-c3ccco3)c2c1=O	inconclusive: 5.38% [signal activator]	–
CN(C)c1ccc(Nc2nc(-c3cccnc3)cs2)cc1	inactive	–
COC(=O)c1ccc(Nc2nnc(-c3ccc(C)c(S(=O)(=O)N4CCN(C)CC4)c3)c3ccccc23)cc1	–	inconclusive: 10 µM [signal inhibitor]
CCC(=O)Nc1ccc(NC(=O)CSc2nnnn2CC)cc1C	inactive	–
COc1ccc(-c2nc3ccccc3s2)cc1NC(=O)COc1ccc(C)cc1	inactive	–
COC(=O)c1[nH]c2ccc(Br)cc2c1NC(=O)C(C)N1CCN(C2CCCCC2)CC1 (stereo unspecified)	inconclusive: -6.09% [signal inhibitor]	–
O=C(NCc1ccco1)c1cccc(-c2nnc(-c3ccccc3)o2)c1	–	inconclusive: 3.98 µM [signal inhibitor, full curve]
CC(C)(C)n1ncc2c(=O)n(Cc3ccc(Cl)cc3Cl)cnc21	inactive	–
CCOCCCN1C(=O)CN(C2CCCCCC2)C(=O)C1c1ccc(OC(C)C)c(OC)c1 (stereo unspecified)	inconclusive: 1.48% [signal inhibitor]	–
CCC1CCCCN1S(=O)(=O)c1ccc(C(=O)Nc2sc3c(c2C(=O)NC)CCC3)cc1 (stereo unspecified)	inconclusive: 15.7% [signal inhibitor]	–
O=C(O)COc1ccccc1C1C2C(=O)N(c3ccccc3)C(=O)C2ON1c1ccccc1 (stereo unspecified)	–	inconclusive: 12.6 µM [signal inhibitor, partial curve]
COc1ccc(NC(=O)c2cc3nc(-c4ccc(C)c(C)c4)cc(C(F)(F)F)n3n2)cc1	inactive	–
COc1ccccc1CNC(=O)c1oc2ccc(S(=O)(=O)N3CCCCC3)cc2c1C	inconclusive: 0.653% [signal inhibitor]	–
CCc1ccccc1NC(=O)c1ccc2c(O)c(S(=O)(=O)c3ccccc3)c(=O)[nH]c2c1	inactive	–
O=C(Nc1ccc(NC(=O)C2CCCCC2)cn1)c1ccco1	inactive	–
Cc1nn(-c2ccccc2)c(OC(=O)C(C)C)c1Sc1ccccc1	inconclusive: 5.41% [signal inhibitor]	–
Cc1ccc(NC(=O)Cc2ccc(-n3c(C)nc4cccnc43)cc2)cc1C	inconclusive: 0.0259% [signal inhibitor]	–
